Counter-ions that a name gives are not always drawn. ± gives the standard deviation of the averaged measurements. Whole data set: some 2,600 compounds, median “total cell number (DAPI+ nuclei) relative to DMSO vehicle control” near -1.4, cut for the lowest 2% near -23. The list shows a part of the results.

This test relates to jimpy (Plp1 jimpy) mouse iPSC-derived oligodendrocyte progenitor cells. Put plainly: total cell number (DAPI+ nuclei) relative to DMSO vehicle control (SDs above negative control mean); higher = more surviving cells. The conditions noted are these: 10 µM; 3 days.
Regarding `CC(C)NCC(O)c1ccccc1Cl` (stereo not drawn) [Clorprenaline HCl], the total cell number amounted to 2.41.

For the compound `C[C@@H]1[C@H](O)[C@@H](C)/C=C/C=C/CC/C=C/C=C/C=C/C=C/[C@H](O[C@H]2O[C@@H](C)[C@H](O)[C@@H](N)[C@H]2O)C[C@@H]2O[C@](O)(C[C@@H](O)[C@H](O)CC[C@@H](O)C[C@@H](O)C[C@@H](O)CC(=O)O[C@H]1C)C[C@H](O)[C@H]2C(=O)O` [Nystatin (Fungicidin)], the total cell number stood at 4.49.

`O=c1ccc2[nH]cc(C3=CCNCC3)c2[nH]1` came in with a total cell number of 0.673.

Compound `C=CCN1CC[C@]23CCCC[C@H]2[C@H]1Cc1ccc(O)cc13` [Levallorphan tartrate] yielded a total cell number of -2.07.

For `O=c1[nH]c2ccccc2n1C1CCN(CCCC(c2ccc(F)cc2)c2ccc(F)cc2)CC1` [Pimozide], the total cell number is -10.3.

For `Cc1cc2c(C(C)C)c(O)c(O)c(C=O)c2c(O)c1-c1c(C)cc2c(C(C)C)c(O)c(O)c(C=O)c2c1O` [Gossypol], the total cell number was -5.94 ± 3.3.

The compound `CCCN1CC[C@@H]2c3cc(O)ccc3CC[C@@H]21` (racemic) [cis(+/-)-8-OH-PBZI hydrobromide] registered a total cell number of 3.26.

`O=c1[nH]c2ccc(Cl)cc2c(N[C@@H]2CN3CCC2CC3)c1-c1nc2ccccc2[nH]1` displayed a total cell number of -12.

Compound `NCCc1c[nH]c2ccc(C(N)=O)cc12` [5-Carboxamidotryptamine maleate] registered a total cell number of -0.886.

In turn, `O=S1(=O)N(CCN2CC=C(c3c[nH]c4cc(F)ccc34)CC2)c2cccc3c2N1CCC3` displayed a total cell number of 0.521.

Compound `CCN(CC)C(=O)c1ccc(C2=CC3(CCNCC3)Oc3cccc(O)c32)cc1` gave a total cell number of 1.6.

`NCCCNCCSP(=O)(O)O` [Amifostine] had a total cell number of 0.361.

Turning to `Clc1ccc(N2CCN(Cc3c[nH]c4ncccc34)CC2)cc1` [L-745,870 hydrochloride], the total cell number is -5.68.

The compound `CN1[C@@H]2C[C@@H](OC(=O)[C@H](CO)c3ccccc3)C[C@H]1[C@H](O)C2` (racemic) [(+/-)-Anisodamine] registered a total cell number of -1.15.

Turning to `COc1ccc(OC)c(C(O)C(C)N)c1` (stereo not drawn) [Methoxamine hydrochloride], the total cell number is -1.42.

Turning to `Cc1sc2c(c1C)C(c1ccc(Cl)cc1)=N[C@@H](CC(=O)OC(C)(C)C)c1nnc(C)n1-2`, the total cell number is -12.5.

`N#C/C(=C\c1ccc(O)c(O)c1)C(N)=S` [Tyrphostin 47] displayed a total cell number of -1.34.

On to `c1ccc2sc(C3(N4CCCCC4)CCCCC3)cc2c1` [BTCP hydrochloride], for which the total cell number is -2.99.

In the case of `CCCC[N+]1(C)[C@@H]2C[C@@H](OC(=O)[C@H](CO)c3ccccc3)C[C@H]1[C@@H]1O[C@@H]12` (single isomer, unassigned; (-)) [(-)-Scopolamine,n-Butyl-, bromide], the total cell number is -0.98.

`CCCC[N+]1(C)[C@@H]2C[C@@H](OC(=O)[C@H](CO)c3ccccc3)C[C@H]1[C@@H]1O[C@@H]12` (single isomer, unassigned; (-)) [Butylscopolamine Bromide] returned a total cell number of -1.54.

On to `COc1cc(OC)c(OC)cc1C=O` [Asaraldehyde], for which the total cell number is -1.75.

With `OC(c1ccccc1)(c1ccccc1)C1CCNCC1` [Azacyclonol], the total cell number was -0.583.

In turn, `NC(CP(=O)(O)O)C(=O)O` (racemic) [(±)-2-Amino-3-phosphonopropionic acid] yielded a total cell number of -0.53.

Compound `NC1CCc2cc(O)c(O)cc2C1` (stereo not drawn) [6,7-ADTN hydrobromide] showed a total cell number of -2.01.

In the case of `Cc1ccc2c(c1)C1(CCN(CCc3nc(-c4ccccc4)oc3C)CC1)OC(=O)N2`, the total cell number was -4.34.

`Cc1ccccc1-n1c(Cn2ncc3c(N)ncnc32)nc2cccc(C)c2c1=O` displayed a total cell number of -1.13.

`C[C@@]12C(=O)OC(=O)[C@]1(C)[C@H]1CC[C@@H]2O1` [Cantharidin] gave a total cell number of -10.

`CCC1(C)CC(=O)NC(=O)C1` [Bemegride] registered a total cell number of 0.679.

`C[C@]12C/C(=C/O)C(=O)C[C@@H]1CC[C@@H]1[C@@H]2CC[C@@]2(C)[C@H]1CC[C@]2(C)O` [Oxymetholone] gave a total cell number of -2.34.

Take `C[C@H]1CNCCc2ccc(Cl)cc21` [Lorcaserin HCl]: the total cell number was determined as 2.19.

The compound `CC1=NN=C(c2ccc(N)cc2)c2cc3c(cc2C1)OCO3` displayed a total cell number of -0.785.

`COc1ccccc1N1CCNCC1` [1-(2-Methoxyphenyl)piperazine hydrochloride] displayed a total cell number of -1.44.

Consider `CC(=O)c1c(O)c(C)c(O)c(Cc2c(O)c3c(c(C(=O)/C=C/c4ccccc4)c2O)OC(C)(C)C=C3)c1O` [Rottlerin], for which the total cell number was -1.04.

Regarding `CC(=O)[C@H]1CC[C@H]2[C@@H]3CC[C@H]4C[C@H](O)CC[C@]4(C)[C@H]3C(=O)C[C@]12C` [5alpha-Pregnan-3alpha-ol-11,20-dione], the total cell number was -0.533.

`c1ccc(C[N+]23CN4CN(CN(C4)C2)C3)cc1` [Roslin 2]: the total cell number is -2.78.

On to `C=C1C[C@@H]2[C@H](CC[C@]3(C)C(=O)CC[C@@H]23)[C@@]2(C)C=CC(=O)C=C12` [Exemestane], for which the total cell number is -5.89.

For `COc1ccc2c(c1OC)C(=O)OC2C1c2cc3c(cc2CCN1C)OCO3` (single isomer, unassigned; (+)) [(+)-Hydrastine], the total cell number was -1.27.

For `O=C1C=CC(=O)C=C1` [p-Benzoquinone], the total cell number was -5.64.

`c1ccc2c(c1)sc1ccccc12` [Dibenzothiophene]: the total cell number amounted to 0.55.

Turning to `O=P1(N(CCCl)CCCl)NCCCO1` (stereo not drawn) [Cyclophosphamide monohydrate], the total cell number was -1.66.

For `CN1C(=O)CCS(=O)(=O)C1c1ccc(Cl)cc1` (stereo not drawn) [Chlormezanone], the total cell number is -1.28 ± 1.1.

`CC(=O)OCC1=C(C(=O)[O-])N2C(=O)[C@@H](NC(=O)CCC[C@@H](N)C(=O)[O-])[C@H]2SC1.[Zn+2]` [Cephalosporin C zinc salt] gave a total cell number of -1.93.

`O=C(O)[C@@H]1CCN1` [L-azetidine-2-carboxylic acid] gave a total cell number of -2.05.

For `O=C(O)Cc1cnc[nH]1` [Imidazole-4-acetic acid hydrochloride], the total cell number was -2.24.

`CCCCCCCCCCCCCCCC[n+]1ccccc1` [Cetylpyridinium Chloride] displayed a total cell number of -15.7.

The compound `CCCN1CCO[C@@H]2c3cc(O)ccc3OC[C@H]21` showed a total cell number of -1.34.

Consider `Cc1ccc(-n2nccn2)c(C(=O)N2CCN(c3nc4cc(Cl)ccc4o3)CC[C@H]2C)c1` [Suvorexant (MK-4305)], for which the total cell number came to 0.1.

`C[C@@H]1O[C@@H](O[C@H]2C[C@@H](O)[C@]3(CO)[C@H]4[C@H](O)C[C@]5(C)[C@@H]([C@@H]6COC(=O)C6)CC[C@]5(O)[C@@H]4CC[C@]3(O)C2)[C@H](O)[C@H](O)[C@H]1O` [Dihydroouabain]: the total cell number worked out at 0.444.

The compound `C/C=C(/C)C(=O)O[C@H]1C(C)=C2[C@H]([C@@H]1OC(=O)CCCCCCC)[C@@](C)(OC(C)=O)C[C@H](OC(=O)CCC)[C@@]1(O)[C@H]2OC(=O)[C@@]1(C)O` [Thapsigargin] showed a total cell number of -10.1.

Compound `CCCN(CCC)C1CCc2cccc(O)c2C1` (racemic) [(±)-8-Hydroxy-DPAT hydrobromide] registered a total cell number of -1.03.

`C[C@]12CC[C@@H](O)C[C@@H]1CC[C@@H]1[C@@H]2CC[C@]2(C)[C@@H](C(=O)CO)CC[C@@H]12` [3-alpha,21-Dihydroxy-5-alpha-pregnan-20-one] showed a total cell number of -1.1.

`c1ccc2c(c1)OCC(C1=NCCN1)O2` (stereo not drawn) [Idazoxan hydrochloride] came in with a total cell number of -1.38.

For `COc1ccc(CC2NCCc3cc(OC)c(OC)cc32)cc1OC` (stereo not drawn) [Tetrahydropapaverine HCl], the total cell number stood at 0.54.

The compound `CC[C@@H](CO)NC(=O)[C@@H]1C=C2c3cccc4c3c(cn4C)C[C@H]2N(C)C1` [Methysergide maleate] had a total cell number of -0.816.

As to `CC(C)C1CNC(C(=O)O)C1CC(=O)O` (stereo not drawn) [Dihydrokainic acid], the total cell number was -0.564.

For `COc1cc2c(c(OC)c1OC)-c1ccc(OC)c(=O)cc1[C@@H](NC(C)=O)CC2` [Colchicine], the total cell number was -2.58.

Turning to `Cc1cc([C@@H]2CCCN2C)on1` [ABT-418 hydrochloride], the total cell number was -4.48.

`C[C@]12CC[C@H](O)CC1=CC[C@@H]1[C@@H]2CC[C@]2(C)C(=O)CC[C@@H]12` [Dehydroepiandrosterone (DHEA)] yielded a total cell number of 0.833.

`CC(N)C(O)c1ccc(O)c(O)c1` (single isomer, unassigned; (-)) [(-)-alpha-Methylnorepinephrine] gave a total cell number of -0.161.

Regarding `O=C(O)CC[N+](=O)[O-]` [3-Nitropropionic acid], the total cell number was -2.13.

In the case of `OCc1cnc[nH]1` [4-Imidazolemethanol hydrochloride], the total cell number was -0.846.

Take `O=[N+]([O-])c1ncc[nH]1` [Azomycin]: the total cell number is 2.47.

`CN1C[C@H](CNC(=O)OCc2ccccc2)C[C@@H]2c3cccc4c3c(cn4C)C[C@H]21` [Metergoline] showed a total cell number of -7.7.

`CCCN1CCC[C@@H]2Cc3n[nH]cc3C[C@H]21` [(-)-Quinpirole hydrochloride] registered a total cell number of -0.638.

In the case of `CC(C)c1cccc(C(C)C)c1O` [Propofol], the total cell number is -1.47.

`CC(O)(CS(=O)(=O)c1ccc(F)cc1)C(=O)Nc1ccc(C#N)c(C(F)(F)F)c1` (stereo not drawn) [Bicalutamide] registered a total cell number of 1.82.

Consider `CC(O)(CS(=O)(=O)c1ccc(F)cc1)C(=O)Nc1ccc(C#N)c(C(F)(F)F)c1` (stereo not drawn) [Bicalutamide (CDX)], for which the total cell number is -0.733.

Take `CN1CCc2cc3c(cc2C1C1OC(=O)c2c1ccc1c2OCO1)OCO3` (single isomer, unassigned; (+)) [(+)-Bicuculline]: the total cell number came out at 0.293.

Regarding `CCN1CCN(C(=O)Cc2ccc(Nc3ncc(F)c(Nc4ccc(C(=O)Nc5ccccc5Cl)cc4)n3)cc2)CC1` [Aurora A Inhibitor I], the total cell number came to 1.44.

Take `CCOC(=O)c1cncn1[C@H](C)c1ccccc1` [Etomidate]: the total cell number was -0.556.

In turn, `CCC1(c2ccc(N)cc2)CCC(=O)NC1=O` (racemic) [(±)-p-Aminoglutethimide] had a total cell number of -1.52.

Consider `Cc1ncsc1CCCl` [Chlormethiazole hydrochloride], for which the total cell number was -1.01.

As to `CCCN(CCC)C1CCc2ccc(O)cc2C1` (racemic) [(±)-7-Hydroxy-DPAT hydrobromide], the total cell number is -1.31.

Values taken from the supplement of paper PMC6135742.
